Measured values from the supplement of paper PMC4967469.
Lines with a small IC50 respond at low doses; where the fit passes the top or lowest dose, that dose stands as a limit. AUC, from the same fit, is the share of area under the viability curve across the 256-fold dose range: 1 means no effect, lower means more sensitive. For some of these results: Where the top dose is marked as inferred, it was derived from the fitted curves, not read from the paper.

Experiments:
Test in all cases: Viability of human cancer cell lines after 72 h of drug (GDSC screen)
KIN001-244 = compound: O=C(NC(COc1ccc2[nH]c(=O)[nH]c2c1)c1ccccc1)c1cccn(Cc2ccc(F)c(F)c2)c1=O [KIN001-244]; conditions: top dose 20 µM; top dose inferred
Procedure: (§1)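 Human cancer cell lines in 384-well plates, medium with 10% serum, drug for 72 h over a 256-fold dose range (nine 2-fold or five 4-fold steps up to the top dose). Adherent lines were fixed and stained with the nucleic acid dye Syto60, suspension lines read with resazurin; signal relative to control wells, capped at 0 and 100%. One two-parameter sigmoid per drug and line, fitted in a mixed model over all curves with the slope shared within a line.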

AV-951 = compound: COc1cc2nccc(Oc3ccc(NC(=O)Nc4cc(C)on4)c(Cl)c3)c2cc1OC [AV-951]; conditions: top dose 0.128 µM; top dose inferred
Procedure: as §1

Trametinib = compound: CC(=O)Nc1cccc(-n2c(=O)n(C3CC3)c(=O)c3c(Nc4ccc(I)cc4F)n(C)c(=O)c(C)c32)c1 [Trametinib]; conditions: top dose 1 µM
Procedure: as §1

MS-275 = compound: Nc1ccccc1NC(=O)c1ccc(CNC(=O)OCc2cccnc2)cc1 [MS-275]; conditions: top dose 5 µM; top dose inferred
Procedure: as §1

HG-6-64-1 = compound: CCN1CCN(Cc2ccc(NC(=O)c3ccc(C)c(/C=C/c4cnc5[nH]ccc5c4OC)c3)cc2C(F)(F)F)CC1 [HG-6-64-1]; conditions: top dose 5.12 µM; top dose inferred
Procedure: as §1

I-BET-762 = compound: CCNC(=O)C[C@@H]1N=C(c2ccc(Cl)cc2)c2cc(OC)ccc2-n2c(C)nnc21 [I-BET-762]; conditions: top dose 20 µM; top dose inferred
Procedure: as §1

PF-4708671 = compound: CCc1cncnc1N1CCN(Cc2nc3ccc(C(F)(F)F)cc3[nH]2)CC1 [PF-4708671]; conditions: top dose 10 µM; top dose inferred
Procedure: as §1

Cell Line	AUC (KIN001-244)	IC50 (KIN001-244)	AUC (AV-951)	IC50 (AV-951)	AUC (Trametinib)	IC50 (Trametinib)	AUC (MS-275)	IC50 (MS-275)	AUC (HG-6-64-1)	IC50 (HG-6-64-1)	AUC (I-BET-762)	IC50 (I-BET-762)	AUC (PF-4708671)	IC50 (PF-4708671)
BC-1 (B-cell lymphoma, suspension)	0.825	9.71 µM	0.985	> 0.128 µM	0.902	0.973 µM	0.572	0.477 µM	0.897	4.72 µM	0.53	1.49 µM	0.897	9.17 µM
BE2-M17 (neuroblastoma, adherent)	0.917	> 20 µM	0.986	> 0.128 µM	0.837	0.701 µM	0.771	1.98 µM	0.975	> 5.12 µM	0.967	> 20 µM	0.976	> 10 µM
BE-13 (lymphoblastic leukaemia, suspension)	0.836	12 µM	0.947	> 0.128 µM	0.973	> 1 µM	0.573	0.488 µM	0.137	0.0259 µM	0.817	10.2 µM	0.869	8.19 µM
BL-41 (Burkitt lymphoma, suspension)	0.757	5.48 µM	0.988	> 0.128 µM	0.991	> 1 µM	0.597	0.539 µM	0.63	0.667 µM	0.508	1.31 µM	0.99	> 10 µM
BT-474 (breast, adherent)	0.87	> 20 µM	0.981	> 0.128 µM	0.984	> 1 µM	0.746	1.74 µM	0.935	> 5.12 µM	0.958	> 20 µM	0.908	> 10 µM
BV-173 (chronic myeloid leukaemia, suspension)	0.913	> 20 µM	0.865	0.0913 µM	0.733	0.261 µM	0.5	0.312 µM	0.535	0.395 µM	0.507	1.3 µM	0.931	> 10 µM
C2BBe1 (large intestine, adherent)	0.9	> 20 µM	0.982	> 0.128 µM	0.663	0.189 µM	0.934	> 5 µM	0.772	2.26 µM	0.95	> 20 µM	0.958	> 10 µM
CA46 (Burkitt lymphoma, suspension)	0.821	12.7 µM	0.981	> 0.128 µM	0.955	> 1 µM	0.903	> 5 µM	0.499	0.317 µM	0.452	0.915 µM	0.909	> 10 µM
CAS-1 (glioma, adherent)	0.912	> 20 µM	0.977	> 0.128 µM	0.719	0.331 µM	0.894	> 5 µM	0.755	2.33 µM	0.875	> 20 µM	0.978	> 10 µM
CCRF-CEM (lymphoblastic leukaemia, suspension)	0.38	0.62 µM	0.989	> 0.128 µM	0.973	> 1 µM	0.643	0.721 µM	0.859	3.19 µM	0.601	2.25 µM	0.977	> 10 µM
CESS (acute myeloid leukaemia, suspension)	0.39	0.654 µM	0.989	> 0.128 µM	0.949	> 1 µM	0.672	0.868 µM	0.799	2.07 µM	0.381	0.62 µM	0.978	> 10 µM
CGTH-W-1 (thyroid, adherent)	0.923	> 20 µM	0.902	> 0.128 µM	0.382	0.0297 µM	0.784	2.12 µM	0.122	< 0.02 µM	0.953	> 20 µM	0.976	> 10 µM
CHP-126 (neuroblastoma, suspension)	0.889	> 20 µM	0.985	> 0.128 µM	0.985	> 1 µM	0.57	0.489 µM	0.913	> 5.12 µM	0.922	> 20 µM	0.987	> 10 µM
CL-11 (large intestine, adherent)	0.953	> 20 µM	0.978	> 0.128 µM	0.164	0.00497 µM	0.958	> 5 µM	0.962	> 5.12 µM	0.965	> 20 µM	0.976	> 10 µM
CMK (acute myeloid leukaemia, suspension)	0.832	10.1 µM	0.99	> 0.128 µM	0.958	> 1 µM	0.539	0.392 µM	0.726	1.24 µM	0.406	0.721 µM	0.885	8.04 µM
COLO-320-HSR (large intestine, suspension)	0.878	15.7 µM	0.989	> 0.128 µM	0.991	> 1 µM	0.832	2.63 µM	0.85	3.13 µM	0.982	> 20 µM	0.99	> 10 µM
COLO-668 (small cell lung carcinoma, adherent)	0.876	19.9 µM	0.971	> 0.128 µM	0.956	> 1 µM	0.971	> 5 µM	0.804	2.56 µM	0.914	> 20 µM	0.879	> 10 µM
